# Out of some 360,000 compounds screened, about 16,000 (4.4%) were called active. The inconclusive results got no clear call from the source; some entries with a clear call stand among them for comparison. Calls follow the shape of the dose curve; as a rule, active = well fitted inhibition curve with a large enough effect; inconclusive = small, poorly fitted or top-dose-only effect; inactive = no such curve, though single readings can be large or run the other way. Potencies of inconclusive entries are doubtful fits and often do not repeat.
# Biological target: Bromodomain adjacent to zinc finger domain protein 2B (Homo sapiens) (UniProt Q9UIF8)
# Chain of UniProt Q9UIF8 (Q9UIF8 whole entry, looked up, the tested form may be a part): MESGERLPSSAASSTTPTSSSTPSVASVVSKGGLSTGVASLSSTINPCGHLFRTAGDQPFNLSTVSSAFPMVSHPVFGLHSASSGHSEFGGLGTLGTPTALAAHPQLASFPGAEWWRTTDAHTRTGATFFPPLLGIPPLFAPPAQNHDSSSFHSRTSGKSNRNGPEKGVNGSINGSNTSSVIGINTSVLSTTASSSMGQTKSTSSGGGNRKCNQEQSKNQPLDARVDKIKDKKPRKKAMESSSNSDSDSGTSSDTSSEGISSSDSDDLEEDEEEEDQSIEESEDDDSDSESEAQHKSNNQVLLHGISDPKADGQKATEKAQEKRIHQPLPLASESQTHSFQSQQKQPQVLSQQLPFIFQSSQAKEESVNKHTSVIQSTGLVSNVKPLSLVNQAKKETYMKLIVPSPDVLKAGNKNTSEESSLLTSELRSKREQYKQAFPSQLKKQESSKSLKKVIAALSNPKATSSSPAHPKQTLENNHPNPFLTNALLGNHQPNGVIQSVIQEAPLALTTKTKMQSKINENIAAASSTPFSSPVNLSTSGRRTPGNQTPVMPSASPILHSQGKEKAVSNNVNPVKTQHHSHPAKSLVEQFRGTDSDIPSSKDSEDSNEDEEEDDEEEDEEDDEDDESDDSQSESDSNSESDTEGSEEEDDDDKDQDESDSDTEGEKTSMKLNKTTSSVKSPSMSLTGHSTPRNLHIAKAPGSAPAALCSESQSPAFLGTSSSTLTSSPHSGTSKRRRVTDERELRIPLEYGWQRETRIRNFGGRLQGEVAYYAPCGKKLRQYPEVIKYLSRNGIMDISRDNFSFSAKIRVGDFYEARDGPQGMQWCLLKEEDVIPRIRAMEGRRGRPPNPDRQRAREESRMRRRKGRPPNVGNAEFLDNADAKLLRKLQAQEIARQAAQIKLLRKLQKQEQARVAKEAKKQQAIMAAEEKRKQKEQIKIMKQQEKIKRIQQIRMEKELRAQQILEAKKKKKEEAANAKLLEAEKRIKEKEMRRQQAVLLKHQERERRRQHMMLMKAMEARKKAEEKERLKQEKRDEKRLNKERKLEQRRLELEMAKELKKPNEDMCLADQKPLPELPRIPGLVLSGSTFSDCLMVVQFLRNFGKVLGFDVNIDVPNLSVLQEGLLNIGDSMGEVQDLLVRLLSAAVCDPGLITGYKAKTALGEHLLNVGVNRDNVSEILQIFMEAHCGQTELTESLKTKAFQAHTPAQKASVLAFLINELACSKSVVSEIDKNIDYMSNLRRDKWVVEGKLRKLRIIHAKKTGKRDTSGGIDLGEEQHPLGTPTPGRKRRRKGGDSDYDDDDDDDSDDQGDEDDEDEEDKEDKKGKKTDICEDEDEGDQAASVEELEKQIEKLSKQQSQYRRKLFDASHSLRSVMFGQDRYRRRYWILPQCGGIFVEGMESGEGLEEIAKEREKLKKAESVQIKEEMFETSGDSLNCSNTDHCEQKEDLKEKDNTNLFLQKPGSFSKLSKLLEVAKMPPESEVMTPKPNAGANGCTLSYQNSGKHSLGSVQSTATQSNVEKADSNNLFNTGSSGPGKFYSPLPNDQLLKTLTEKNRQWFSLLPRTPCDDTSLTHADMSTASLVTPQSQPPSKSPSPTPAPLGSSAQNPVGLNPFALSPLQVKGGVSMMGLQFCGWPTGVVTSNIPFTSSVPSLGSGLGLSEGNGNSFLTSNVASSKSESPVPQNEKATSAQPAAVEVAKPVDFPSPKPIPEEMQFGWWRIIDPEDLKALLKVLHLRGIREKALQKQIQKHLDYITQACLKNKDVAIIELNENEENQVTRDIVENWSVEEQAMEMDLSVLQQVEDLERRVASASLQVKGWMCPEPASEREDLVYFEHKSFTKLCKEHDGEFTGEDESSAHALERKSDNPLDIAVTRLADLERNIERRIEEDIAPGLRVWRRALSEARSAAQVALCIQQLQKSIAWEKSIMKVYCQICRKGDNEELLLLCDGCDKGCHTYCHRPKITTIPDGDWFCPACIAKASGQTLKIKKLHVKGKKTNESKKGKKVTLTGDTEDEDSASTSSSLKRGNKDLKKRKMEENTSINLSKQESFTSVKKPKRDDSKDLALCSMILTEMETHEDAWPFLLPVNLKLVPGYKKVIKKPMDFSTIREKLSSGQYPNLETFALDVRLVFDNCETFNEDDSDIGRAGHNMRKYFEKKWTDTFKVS
# Assay: qHTS Assay for Inhibitors of BAZ2B; also: nearly all actives have a fitted effect of over 60% in size
# Conditions: AlphaScreen BAZ2B-H3K14Ac peptide displacement; activity change, negative = inhibition: at 114 µM (top of the series)
# Procedure, shortened: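 Complex of BAZ2B and biotin-H3K14Ac (50 nM apiece) forms over 30 min at RT, then faces library compounds up to 110 uM for another 30 min; AlphaScreen beads added, 20 min dark incubation, luminescence read.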
# % is scaled to controls: 0 for no effect and ±100 for the full control effect; potency is read from the fitted curve at half-maximal effect; tags tell the direction and shape of the fitted curve.
Structure (SMILES),Potency,"activity change, negative = inhibition"
CC(C)CCNC(=O)CCC(=O)NNc1nc2ccccc2c2nc(-c3ccccc3)nn12,"inconclusive: 70.8 µM [inhibitor, single point]",
CSCCC1NC(=O)N(CC(=O)Nc2ccc(N3CCCCC3)cc2)C1=O (centres undefined),"inconclusive: 89.1 µM [inhibitor, single point]",
CCN(CC)CCCNC(=S)N1CCN(c2nc(-c3ccc(F)cc3)cs2)CC1,"inconclusive: 44.7 µM [inhibitor, partial curve]",
COc1ccccc1NC(C)=[N+](C)CCNS(=O)(=O)c1ccc(Cl)cc1,active: 25.1 µM,
COc1ccc(S(=O)(=O)n2nc(C)c(S(=O)(=O)N3CCC(C)CC3)c2C)cc1OC,"inconclusive: 89.1 µM [inhibitor, single point]",
Cc1ccc(C)c(SCC(=O)Nc2cc(S(=O)(=O)N3CCOCC3)ccc2C)c1,,inactive: 5.53%
COc1ccc(Cn2c(=O)c3cccnc3n(CC(=O)Nc3c(C)cc(C)cc3C)c2=O)cc1,,inactive: -4%
CCC(C)Sc1ccc(-c2nc3ccc(C)cn3c2NCc2ccccc2)cc1OC (centres undefined),"inconclusive: 39.8 µM [inhibitor, partial curve]",
CN(C)CCCn1c(-c2ccccc2)nc(=S)c2c1CCCC2,,inactive: -24.4%
CC(=O)c1cccc(NC(=O)C2CC(c3ccc(F)cc3)=NO2)c1 (centres undefined),"inconclusive: 39.8 µM [inhibitor, single point]",
CCOc1ccc(CNS(=O)(=O)c2cc3c(cc2C)NC(=O)CO3)cc1,,inactive: 0.497%
O=C(O)C1CC(=O)N(c2ccc3c(c2)OCCO3)C1 (centres undefined),"inconclusive: 100 µM [inhibitor, single point]",
COc1ccc(NC(=O)c2ccc3c(c2)sc2nc(-c4ccc(OC)cc4)cn23)cc1,"inconclusive: 79.4 µM [inhibitor, single point]",
Cc1ccc(-c2cn(-c3cccc(Cl)c3)c(S(=O)(=O)CC(=O)Nc3ccccc3F)n2)cc1,"inconclusive: 17.8 µM [inhibitor, full curve]",
CCN(CC)c1cc2c(cc1F)c(=O)c(S(=O)(=O)c1cccc(C)c1)cn2C,,inactive: -0.0445%
COc1ccc(Br)c(C(=O)N2CCN(S(=O)(=O)c3cccs3)CC2)c1,active: 89.1 µM,
CCOC(=O)/C=C/C(=O)N1CCc2ccccc21,"inconclusive: 89.1 µM [inhibitor, single point]",
COc1ccc(C(C)C)cc1S(=O)(=O)Nc1ccccn1,,inactive: -4.36%
Cc1onc(C(=O)Nc2c(C)n(C)n(-c3ccccc3)c2=O)c1[N+](=O)[O-],"inconclusive: 79.4 µM [inhibitor, single point]",
CCOC(=O)c1[nH]c(COC(=O)CCOc2ccccc2OC)c(C(=O)OCC)c1C,,inactive: 7.98%
N#Cc1cccc(N=Cc2c(O)ccc3ccccc23)c1,,inactive: -2.72%
CO/N=C\C(=N\Nc1ccc(OC)cc1)C(=O)c1ccccc1,"inconclusive: 11.2 µM [inhibitor, full curve, poor fit]",
CCOc1cc(/C=C2\C(=N)N3N=C(S(=O)(=O)CC)SC3=NC2=O)ccc1OC(=O)c1ccco1,"inconclusive: 79.4 µM [inhibitor, single point]",
COc1ccc(NC(=O)CN2CCc3ccccc3C2)c(OC)c1,,inactive: -35.7%
CN1CCN(S(=O)(=O)c2cccc(C(=O)Oc3ccc(Br)cc3F)c2)CC1,"inconclusive: 44.7 µM [inhibitor, partial curve]",

Structure (SMILES),Potency,"activity change, negative = inhibition"
CSCC[C@H](NC(=O)c1cc2c([nH]c3ccccc32)c(-c2ccccc2)n1)C(=O)O,"inconclusive: 70.8 µM [inhibitor, single point]",
CCCCn1nc(C(=O)Nc2nc3c(s2)CCCC3)c2ccccc2c1=O,"inconclusive: 89.1 µM [inhibitor, single point]",
O=C(Nc1nnc2n1CCS2)c1ccc(F)cc1F,active: 50.1 µM,
COC(=O)c1c(C)[nH]c(C(=O)C(C)OC(=O)C2CC(=O)N(CCc3ccccc3)C2)c1C (centres undefined),active: 56.2 µM,
COc1cc2[nH]c(Cl)c([N+](=O)[O-])c2cc1OC,active: 56.2 µM,
COc1cc2c(cc1OC)CN(c1nc(CN3CCCCC3)nc3sc4c(c13)CCCC4)CC2,"inconclusive: 39.8 µM [inhibitor, full curve]",
Cc1cccc(-c2nnc(SCC(=O)Nc3ncccn3)n2C)c1,,inactive: -14.2%
CCOc1cc(Br)cc(/C=N/NC(=O)c2cccnc2)c1O,active: 28.2 µM,
CCN(CC)CCCOc1ccc(Cl)c(Cl)c1,"inconclusive: 89.1 µM [inhibitor, single point]",
O=C(CSC1CC(=O)N(CC(c2ccccc2)c2ccccc2)C1=O)Nc1ccc(Cl)cc1 (centres undefined),"inconclusive: 89.1 µM [inhibitor, single point]",
CCCC(c1nnnn1CC1CCCO1)N1CCN(c2cc(Cl)ccc2C)CC1 (centres undefined),"inconclusive: 89.1 µM [inhibitor, single point]",
Cc1occc(=O)c1O,"inconclusive: 79.4 µM [inhibitor, partial curve]",
CCN1CCN(CCCNC(=O)c2ccc(/C=C3/Sc4ccccc4N(Cc4ccccc4F)C3=O)cc2)CC1,"inconclusive: 50.1 µM [inhibitor, partial curve]",
O=C(O)c1cccn2c(=O)c3ccccc3nc12,"inconclusive: 89.1 µM [inhibitor, single point]",
Cc1cc(SCC(=O)N2CCN(C(=O)c3ccco3)CC2)c(C)cc1Br,,inactive: -36.3%
Cc1ccc(CNC(=O)CNC(=S)N(Cc2ccccc2)Cc2cccnc2)cc1,,inactive: -12%
O=C1NC(C(=O)O)=CC(c2ccc([N+](=O)[O-])cc2)N1 (centres undefined),"inconclusive: 89.1 µM [inhibitor, single point]",
O=C(O)CSCc1ccc(C(=O)O)o1,"inconclusive: 100 µM [inhibitor, single point]",
COc1ccc(Br)cc1CNC(=O)C1CCN(C(=O)N(C)C)CC1,,inactive: -3.63%
COC(=O)c1c[nH]n2c(=O)cc(CCl)nc12,"inconclusive: 89.1 µM [inhibitor, single point]",
CCC(CC)NC(=O)c1ccc(NS(=O)(=O)c2ccc3[nH]c(=O)[nH]c3c2)cc1,"inconclusive: 79.4 µM [inhibitor, single point]",
Cc1[nH]n(-c2ccccc2)c(=O)c1N=Nc1ccccc1O,"inconclusive: 6.31 µM [inhibitor, full curve]",
Cc1ccc(S(=O)(=O)N(CC(=O)Nc2cccc([N+](=O)[O-])c2)C2CCCCC2)cc1,"inconclusive: 56.2 µM [inhibitor, partial curve]",
COc1ccc(CN2CCCN(C)CC2)c(OC)c1C,"inconclusive: 89.1 µM [inhibitor, single point]",
COc1ccccc1NC(=O)Nc1nc(CC(=O)Nc2ccc(F)cc2)cs1,,inactive: -8.67%

Structure (SMILES),Potency,"activity change, negative = inhibition"
CCn1c(=O)cc(SCC(=O)NCc2ccco2)c2ccccc21,,inactive: -37.3%
CC(=O)c1cc2c(cc1NC(=O)CN1CCCCC1C)OCO2 (centres undefined),active: 79.4 µM,
OCCN(Cc1ccccc1)Cc1ccc(Cl)cc1Cl,"inconclusive: 89.1 µM [inhibitor, single point]",
O=C1SC(c2ccccc2)=C/C1=C\N1CCCCC1,active: 50.1 µM,
c1csc(-c2nc3ccccn3c2NC2CCCCC2)c1,"inconclusive: 70.8 µM [inhibitor, single point]",
O=C(O)c1ccc(NC(=O)c2cccc(N3C(=O)C4C5CCC(C5)C4C3=O)c2)cc1 (centres undefined),,inactive: 2.08%
CCC(CC)C(=O)Nc1ccc(-c2cn3cccnc3n2)cc1,inactive,
CNc1nnc(-c2ccc(N(C)C)cc2)s1,,inactive: 2.7%
COC(=O)c1ccc(OCCN2CCCCCC2)cc1,"inconclusive: 50.1 µM [inhibitor, partial curve]",
Clc1cccc(N/N=C/c2ccc(N3CCOCC3)s2)c1,active: 50.1 µM,
O=C(O)CC(C(=O)O)N1C(=O)/C(=C/C=C/c2ccco2)SC1=S (centres undefined),active: 5.01 µM,
COc1cc2[nH]c3c(N4CCN(c5ccc(Cl)cc5)CC4)ncnc3c2cc1OC,"inconclusive: 28.2 µM [inhibitor, single point]",
O=C(CN1C(=O)C2CC=CCC2C1=O)Nc1nc2ccccc2[nH]1 (centres undefined),"inconclusive: 89.1 µM [inhibitor, single point]",
COc1ccc(C)cc1S(=O)(=O)NCC(c1cccnc1)N1CCc2ccccc2C1 (centres undefined),"inconclusive: 39.8 µM [inhibitor, single point]",
O=C1C(Cl)=C(Nc2cccc(O)c2)C(=O)N1Cc1ccccc1,"inconclusive: 44.7 µM [inhibitor, partial curve]",
Clc1ccc(Cn2ncc3c(NCc4ccco4)ncnc32)c(Cl)c1,"inconclusive: 89.1 µM [inhibitor, single point]",
O=[N+]([O-])c1ccc(S(=O)(=O)N2CCN(Cc3ccco3)CC2)cc1,active: 20 µM,
COc1cc(NC(=O)CCn2cnc3ccccc3c2=O)cc(OC)c1,,inactive: -5.4%
Cc1cc(NC(=O)COC(=O)[C@H](Cc2c[nH]c3ccccc23)NC(=O)c2ccc(F)cc2)no1,"inconclusive: 50.1 µM [inhibitor, partial curve]",
CN(CC(=O)Nc1ccc(Cl)cc1)C(=O)CNC(=O)Cc1cccc2ccccc12,"inconclusive: 89.1 µM [inhibitor, single point]",
O=C(NC(=S)Nc1ccc(Oc2ccccc2)cc1)c1ccc(Cl)cc1,"inconclusive: 79.4 µM [inhibitor, single point]",
COc1ccc(C(C)=O)cc1COC(=O)CCNS(=O)(=O)c1ccc(C(C)=O)cc1,,inactive: -19.4%
CC(=O)/C=C\c1ccc(OC(=O)c2cccnc2)cc1,,inactive: -7.55%
COC(=O)c1cc(OC)c(OC)cc1NC(=S)Nc1cccc(Cl)c1,,inactive: -6.67%

# From PubChem BioAssay AID504333 (National Center for Advancing Translational Sciences (NCATS), 2011)
